In all, about 360,000 compounds went through this assay and about 420 (0.12%) were called active. Inconclusive means that the source gave no clear call. Such entries were picked first, then a sample of the others. Cut-off read from the data, not from the text of the source: active = inhibition above about 30%; inconclusive = no clear call, values can overlap the other calls; inactive = below that.
Each compound was assayed against Lethal factor (Bacillus anthracis) (UniProt P15917) (assay: anthrax lethal factor cleavage blockers – biochemical, multiplex microsphere, MLPCN library, primary screen (AID 588501; note: plate controls were buffer without enzyme for full effect and enzyme alone for no effect)). Conditions: multiplex microsphere protease cleavage assay, LF; at 10 µM; active compounds read high.

| SMILES | inhibition |
| --- | --- |
| Cc1ccc(Cl)cc1N1CCN(Cc2cc3c(cc2O)CCC3)CC1 | inconclusive: 0.4% |
| NCCCCCc1nnc(SCc2ccc(Cl)cc2Cl)o1 | inconclusive: -21.9% |
| CCCN(CC1CC1)C(=O)COc1ccccc1C(=O)NCc1ccccc1 | inconclusive: -13.1% |
| COc1cc(SC)ccc1C(=O)NCCN1CCOCC1 | active: 37.1% |
| C=CCn1c(O)c2ccc(C(=O)N=NC(=O)c3ccc(F)cc3)cc2c1O | inconclusive: -6.5% |
| O=C(CCCCCCCC(=O)NCC1CCCO1)NCC1CCCO1 (configuration not stated) | inconclusive: -17.5% |
| COc1ccccc1C1CCN(C(=S)Nc2ccc(Br)cc2)CC1 | active: 49.5% |
| CCOc1ccc(S(=O)(=O)N/N=C\c2ccc3c(c2)OCO3)cc1 | inconclusive: -6.1% |
| N#CCC(=O)Nc1ccc(C(=O)NNC(=S)NC2CC2)cc1 | inconclusive: 12.9% |
| CC(C)CN(C(=O)COC(=O)c1ccc2ccccc2c1)c1c(N)n(Cc2ccccc2)c(=O)[nH]c1=O | inconclusive: -7.7% |
| CC(=O)Nc1ccc(S(=O)(=O)Nc2nc3ccccc3nc2-n2ccc(=NC(=O)c3ccccc3)cc2)cc1 | inconclusive: -7.8% |
| O=S(=O)(c1cccc(C(F)(F)F)c1)N1CCC(CO)(CCCc2ccccc2)CC1 | active: 49% |
| O=C(c1ccc2c(c1)OCO2)N1CCN(c2ccc(F)cc2)CC1 | inconclusive: 0.8% |
| COCc1nnc(NS(=O)(=O)c2ccc([N+](=O)[O-])cc2)s1 | inconclusive: -1.6% |
| CCOc1ccccc1N1CCN(C(=O)CN2C(=O)NC3(CCCC3)C2=O)CC1 | inconclusive: 1.1% |
| Cc1ccc(CNC(=O)c2cccnc2Sc2cccc(Cl)c2)cc1 | inconclusive: -2.2% |
| CCN(CC)C(=O)Cn1cc(S(=O)(=O)CC(=O)Nc2ccc(F)cc2)c2ccccc21 | inconclusive: -4% |
| COC(=O)c1ccccc1NC1CC(=O)N(c2c(C)cccc2C)C1=O (configuration not stated) | inactive: -2% |
| O=S(=O)(NC1C2CC3CC(C2)CC1C3)c1ccc(F)cc1 (configuration not stated) | inconclusive: 1.4% |
| O=c1c2ccccc2c(-c2ccccc2)nn1Cc1ccc(Cl)cc1 | inconclusive: -9.7% |
| Cc1ccccc1-c1nnn(CC(=O)N(C)CC(=O)Nc2ccccc2C(F)(F)F)n1 | inactive: 1.1% |
| CC(NC(=O)CN1CCc2ccccc21)c1ccccc1 (configuration not stated) | inconclusive: -2.2% |

| SMILES | inhibition |
| --- | --- |
| COc1ccc2nc(C(C)O)[nH]c2c1 (configuration not stated) | inconclusive: 3.2% |
| Cc1nc(-c2cccc(NS(=O)(=O)c3ccc4ccccc4c3)c2)cs1 | inconclusive: -49.2% |
| O=C(CN1C(=O)NC2(CCc3ccccc32)C1=O)c1cccs1 (configuration not stated) | inconclusive: -2.5% |
| COc1ccc(NC(=O)CN(C)C(=O)c2ccc(N3CCCCCC3)c([N+](=O)[O-])c2)cc1 | inconclusive: -1.2% |
| CN(C)c1ccc([C@@H]2[C@@H]([N+](=O)[O-])[C@H]3C=Cc4ccccc4N3[C@H]2C(=O)c2ccc(Cl)cc2)cc1 | inconclusive: -17.8% |
| Nc1ccc(-c2nnn(CC(=O)N3CCCCC3)n2)cc1 | active: 46.5% |
| Cn1c(CN2CCCCC2)nc2cc(NC(=O)c3ccc(F)cc3)ccc21 | inactive: -6.6% |
| Oc1cccc(C=NCc2ccccc2)c1O | inconclusive: 2.7% |
| CC(=O)N1C(=O)NC(c2ccccc2)=C([N+](=O)[O-])C1c1ccccc1 (configuration not stated) | active: 32.8% |
| CC1CC(C)CN(S(=O)(=O)c2ccc(C(=O)NCCCn3ccnc3)cc2)C1 (configuration not stated) | inconclusive: -25.2% |
| O=C(Cc1ccsc1)NNC(=O)c1ccc(F)cc1 | inconclusive: -3.4% |
| Cc1c(-c2ccc(/C=N/NC(=O)C(=O)Nc3ccccc3F)o2)cccc1[N+](=O)[O-] | inconclusive: 11.6% |
| CN(C)c1nc(C(=O)NN)nc(N(C)C)n1 | inactive: -1.3% |
| CN(C)C(=O)c1ccc(NC(=O)c2cncc(Br)c2)cc1 | inactive: 2.3% |
| O=C(Nc1ccncc1)c1cccc(S(=O)(=O)N2CCc3ccccc32)c1 | inconclusive: -4.6% |
| O=C(O)/C(=N/NC(=O)c1ccc(Cl)cc1)c1ccccc1 | active: 30.7% |
| CC1(C)NC(=O)N(CC(O)CN2CCOCC2)C1=O (configuration not stated) | inconclusive: -0.6% |
| Clc1cccc(OCCOCCN2CCNCC2)c1Cl | inconclusive: -35.5% |
| CCOC(=O)C1CCCN(C2=NC(=O)/C(=C/c3ccc(N(C)C)cc3)S2)C1 (configuration not stated) | inactive: 1.9% |
| Cc1cc(C)c2nc(Cl)c(Cl)nc2c1 | inactive: -4% |
| CC(C)NC(=O)N(C)C[C@H]1Oc2ccc(NS(=O)(=O)c3ccccc3)cc2C(=O)N([C@H](C)CO)C[C@@H]1C | inactive: 6.1% |
| CCCCCCCn1c(=N)n(CC(=O)c2ccco2)c2ccccc21 | active: 71.8% |

| SMILES | inhibition |
| --- | --- |
| O=C(COc1ccccc1)NCC(c1ccco1)N1CCN(c2ccccc2)CC1 (configuration not stated) | inconclusive: 1.9% |
| CC1(C)CC(=O)C(C(c2cc([N+](=O)[O-])ccc2Cl)C2C(=O)CC(C)(C)CC2=O)C(=O)C1 | inconclusive: 20.1% |
| COc1ccccc1NC(=O)Nc1nc(CC(=O)Nc2ccc(OC)c(OC)c2)cs1 | inconclusive: -6.5% |
| Cc1ccc(OCC(O)CN2CCN(CC(O)COc3ccc(C)cc3)CC2)cc1 (configuration not stated) | inactive: -0.3% |
| COc1ccc(N2CCN(S(C)(=O)=O)CC2)cc1 | inconclusive: -5.9% |
| CC(NC(=O)NCc1cccnc1)(C(F)(F)F)C(F)(F)F | inactive: -9.9% |
| O=C(Cc1cccc(NC(=O)C2CCN(S(=O)(=O)c3cccc([N+](=O)[O-])c3)CC2)c1)Nc1cccc(C(=O)N2CCOCC2)c1 | inactive: -5.1% |
| Cc1ccc(N(C(C)C(=O)O)S(=O)(=O)c2c(C)[nH]c(=O)[nH]c2=O)cc1 (configuration not stated) | inactive: 1.3% |
| Nc1c(S(=O)(=O)c2ccccc2)c2nc3ccccc3nc2n1Cc1ccco1 | inconclusive: -14.5% |
| O=C(O)C(=O)Nc1nc(-c2ccc3c(c2)OCCO3)cs1 | inconclusive: 14.7% |
| O=C(NN1CCOCC1)c1cc(-c2ccc(Cl)c(Cl)c2)nc2ccccc12 | inactive: -4.6% |
| CC(=O)Nc1ccc(SC(C)C(=O)NC(N)=O)cc1 (configuration not stated) | inconclusive: -4.8% |
| CCOC(=O)c1ccc(NS(=O)(=O)c2ccc3[nH]c(=O)[nH]c3c2)cc1 | inconclusive: -30% |
| Cc1cc(C(=O)CCC(=O)NNC(=O)c2ccccc2O)c(C)s1 | inconclusive: 5% |
| CN1CCN(CCC(=O)N2c3ccccc3Sc3ccc(Cl)cc32)CC1 | inconclusive: -16.6% |
| Cc1c(C(=O)N2CCN(C3CCS(=O)(=O)C3)CC2)oc2ccc(Cl)cc12 (configuration not stated) | inconclusive: -2.4% |
| CCn1c(=O)c2cc(C(=O)N(C)CC(OC)OC)sc2c2ccccc21 | active: 38.5% |
| O=C(O)COc1c(F)c(F)c(C(F)(F)F)c(F)c1F | inconclusive: 6.4% |
| CSc1ccc(/C=N/NC(=O)c2cccs2)cc1 | inconclusive: 7.1% |
| Cc1ccc(C)c(NC(=O)CN(C)C(=O)c2ccc(-c3cccc(C(F)(F)F)c3)o2)c1 | inconclusive: -4.5% |
| COCCNc1nc(-c2cc(F)ccc2C)c2sc(-c3ccccc3)cc2n1 | inactive: 6.7% |
| CCn1c(Cn2nnc(-c3ccccc3)n2)nnc1SCC(=O)N1CCOCC1 | inconclusive: -11.3% |

| SMILES | inhibition |
| --- | --- |
| CC(=O)N1c2ccc(S(=O)(=O)N3CCCC3)cc2CC1C(=O)Nc1cc(C)cc(C)c1 (configuration not stated) | inconclusive: 4.1% |
| O=C(C/C=N/OCc1c(Cl)cccc1Cl)c1ccc(Cl)cc1 | inconclusive: -10.2% |
| O=C(COC(=O)C12CC3CC(CC(C3)C1)C2)NC12CC3CC(CC(C3)C1)C2 | inconclusive: -86.8% |
| Cc1cc(C)cc(N(C(=O)c2sc(C)nc2C)C(C(=O)NC(C)(C)C)c2ccncc2)c1 (configuration not stated) | inactive: -3.1% |
| CCc1ccccc1NC(=O)CNC(=O)c1cc(C2CC2)nc2c1cnn2C(C)C | inconclusive: 0.5% |
| COc1ccc(-n2c(C)nc(N)c2C(=O)c2ccccc2)cc1 | active: 56.3% |
| O=C(NCc1ccco1)c1cc2nc(-c3ccc4c(c3)OCO4)cc(C(F)(F)F)n2n1 | inconclusive: -3.7% |
| c1ccc2nc(-c3nc4ccccc4[nH]3)ccc2c1 | inactive: -1.3% |
| CCN(CC)S(=O)(=O)c1cc(C(=O)Oc2ccccc2OC)ccc1OC | inactive: 3% |
| CC(=O)Nc1ccc(NC(=O)C(C)OC(=O)CNS(=O)(=O)/C=C/c2ccc(C)cc2)cc1 (configuration not stated) | inconclusive: 1.4% |
| CC(C)(C)c1ccc(N2C(=O)Cc3c2nc(N)c(C#N)c3N)cc1 | inconclusive: 34.2% |
| Cc1ccsc1C(=O)OCC(=O)NCCNC(=O)COC(=O)c1sccc1C | inconclusive: -4.3% |
| COc1cc2cc(C(=O)O)n(C)c2c(OC)c1OC | inconclusive: -21.6% |
| CCOc1ccc(Oc2ccc(S(=O)(=O)N3CCOCC3)cc2NC(=O)C2=COCCO2)cc1 | inconclusive: -10.6% |
| O=[N+]([O-])c1ccccc1S(=O)(=O)Nc1cccc(-c2ccc(N3CCCC3)nn2)c1 | inconclusive: -12.7% |
| CSCCC(NS(=O)(=O)c1ccccc1)C(=O)Nc1nccs1 (configuration not stated) | inconclusive: -1.1% |
| CSc1nc(O)c(C(c2ccc(F)cc2)c2c(O)nc(SC)[nH]c2=O)c(=O)[nH]1 | inconclusive: -18.5% |
| O=C(CNC(=O)C12CC3CC(CC(C3)C1)C2)N/N=C\c1ccco1 | inconclusive: -0.4% |
| COc1ccccc1-[n+]1c(C)cc(/C=C2\Sc3ccccc3N2C)cc1C | active: 40.1% |
| O=C(Nn1c(O)c(C=C2N=c3ccccc3=N2)sc1=S)c1ccccc1Cl | active: 64.7% |
| O=P(c1ccccc1)(c1ccccc1)C(O)c1ccccn1 (configuration not stated) | inconclusive: -4.6% |

Source: PubChem BioAssay AID588501 (NMMLSC, 2011)
